# Measurements: PubChem BioAssay AID651820 (National Center for Advancing Translational Sciences (NCATS), 2012)
# The whole screen tested about 340,000 compounds, of which about 12,000 (3.5%) were called active. Inconclusive results, whose numbers are uncertain, are shown with a selection of clear calls. Calls come from the whole dose curve; as a rule, active = well fitted inhibition curve with a large enough effect; inconclusive = small, poorly fitted or top-dose-only effect, or another doubt; inactive = no such curve, though single readings can be large or run the other way. Potencies of inconclusive entries are left out as doubtful fits.
# Test: qHTS Assay for Inhibitors of Hepatitis C Virus (HCV)
# Conditions: Huh7.5.1 HCVcc-Cre (HCVcc is cell-culture hepatitis C virus) infection, luciferase reporter, 44 h; series mostly up to 41.8 µM
# How it was run: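 HCVcc-Cre virus at an moi near 0.5 was added right after compound to cells cultured 4 h from seeding (1,000 cells/well). Luciferase activity was determined 44 h later, 15 min after substrate addition at RT.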
# Potency is the fitted concentration of half-maximal effect; tags give direction and shape of the fitted curve.
row,Compound,Potency
1,O=c1[nH]c2ccc(N/C(=N/S(=O)(=O)c3ccccc3)c3ccccc3)cc2[nH]1,inactive
2,CCN(CC)C(=O)Oc1ccc2ccccc2c1Br,"inconclusive [inhibitor, single point]"
3,Cc1ccc(-n2nc(C(=O)N3CCOCC3)cc2-c2ccc(Cl)cc2)cc1,"inconclusive [inhibitor, single point]"
4,Cc1ccc(C(=O)CNc2cccc(Cl)c2)cc1,inactive
5,Cc1ccc(NC(=O)Nc2cccn(Cc3c(F)cccc3Cl)c2=O)cc1,active: 11.2 µM
6,Nc1nc2ccccc2n1CCOc1ccccc1Cl,"inconclusive [inhibitor, single point]"
7,CC(=O)COc1cccc2ccc(/C=C/c3ccc(Br)s3)nc12,active: 11.2 µM
8,O=C1COc2ccc(C(=O)CSc3nnc(Cc4ccccc4)o3)cc2N1,"inconclusive [inhibitor, single point]"
9,O=C1CC(/C=C/c2cccnc2)=Nc2ccccc2N1,inactive
10,COc1ccc(CCNc2ncnc3[nH]ncc23)cc1OC,"inconclusive [inhibitor, partial curve]"
11,O=c1c2cc(F)ccc2[nH]c(=S)n1Cc1ccc(F)cc1,"inconclusive [inhibitor, single point]"
12,COc1ccccc1-c1c(C)nn2c(N3CCC4(CC3)OCCO4)cc(C)nc12,"inconclusive [inhibitor, partial curve]"
13,CCc1nc2ccc(C(=O)NCc3ccco3)cc2nc1CC,"inconclusive [inhibitor, partial curve, poor fit]"
14,Cc1nonc1OCCN1CCN(c2ccc([N+](=O)[O-])cc2)CC1,"inconclusive [inhibitor, single point]"
15,C=CCNC(=O)CSc1nnc(C(CC)N(C)C)n1C1CCCCC1 (configuration not stated),inactive
16,C/C(CCc1ccco1)=N\NC(=O)CNc1c(Br)cc(Br)cc1Br,"inconclusive [inhibitor, partial curve]"
17,O=[N+]([O-])c1cccc2c3c([nH]c12)CCCC3,"inconclusive [inhibitor, partial curve]"
18,N#CC(c1ccc(Cl)cc1)c1ccc(Cl)nn1 (configuration not stated),inactive
19,CC(C)c1ccc(NC2=CC(=O)CC(C)(C)C2)cc1,"inconclusive [inhibitor, single point]"
20,CCOc1ccc(CCNC(=O)CCn2cccc2)cc1OCC,inactive
21,Cn1c(=O)[nH]c(=O)c2c1nc(CN1CCOCC1)n2Cc1ccc(F)cc1,inactive
22,CCCCNS(=O)(=O)CCNCc1ccccc1OC,inactive
